In this assay the target is T1, PTP1B enzyme (GST-PTP1B) (Homo sapiens, UniProt P18031).
T1 sequence (P18031 1-435): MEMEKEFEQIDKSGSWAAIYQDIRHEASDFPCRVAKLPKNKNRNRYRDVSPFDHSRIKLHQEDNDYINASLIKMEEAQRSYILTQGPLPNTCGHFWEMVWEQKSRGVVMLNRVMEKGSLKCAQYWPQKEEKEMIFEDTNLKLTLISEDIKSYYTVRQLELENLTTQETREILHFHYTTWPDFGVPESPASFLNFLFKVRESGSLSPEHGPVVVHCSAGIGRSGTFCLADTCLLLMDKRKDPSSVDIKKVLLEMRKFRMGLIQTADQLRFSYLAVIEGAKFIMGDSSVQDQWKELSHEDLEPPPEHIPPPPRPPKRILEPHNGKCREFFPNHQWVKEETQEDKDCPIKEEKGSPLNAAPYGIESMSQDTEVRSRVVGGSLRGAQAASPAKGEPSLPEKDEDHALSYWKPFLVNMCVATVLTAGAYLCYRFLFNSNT
Nature of the assay: PTP1B inhibition assay (colorimetric, pNPP substrate). As to conditions: IC50, inhibitory effect on PTP1B enzyme, in vitro colorimetric assay, 2 mmol/L pNPP, 30 nmol/L GST-PTP1B, pH 6.5, 30 °C.

In general, IC50 refers to the concentration needed to halve the response being measured. A high value points to a need for much substance. `COc1cc(O)c([C@@H](c2ccccc2)c2ccc3c(c2OC)OCO3)c(-c2ccccc2)c1` [Compound 2, (+)-Securidane A] showed an IC50 of 12.6 ± 3.68 µM.
